Source: article PMC12040169 (PLOS Biology, 2025)
The list shows a part of the results.

tested on: T1, C. trachomatis L2/434/Bu expressing GFP (CTL2-GFP); parameters: species or system HeLa; C. trachomatis total inclusion area by high-content imaging, normalised to DMSO; conditions: total inclusion area; 28.5 h, 10 µM; inhibitor
T1 construct: L2/434/Bu GFP intracellular growth in HeLa cells
How it was run: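 Following bulk GFP and resorufin fluorescence reads, infected cells were fixed, Hoechst-stained and imaged on a high-content platform. Inclusion total area and number per well served as growth proxies; nuclei counts indicated host viability. MICs were derived as for the fluorescence assay.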

SMILES	% of control remaining
Cc1[nH]c2cccc(C(=O)N(C)CCc3cn[nH]c3)c2c1C [CBK283070]	107.174
Cn1nnc2cc(NCC34CC3CN(C(=O)OC(C)(C)C)C4)ccc21 (stereo not shown) [CBK304758]	48.9446
O=C(CSc1ccc2nnc(-c3ccc(F)cc3)n2n1)N1CCCCC1 [CBK287520]	96.134
N#Cc1cccc(CN2C[C@H](O)C[C@H]2c2nc(Cc3ccccc3)no2)c1 [CBK288842]	109.385
Cc1cc(CN(C)C(=O)c2cccc(NC(=O)C3CCCCC3)c2)no1 [CBK305722]	49.2481
CN(C)CC(C)(C)CNC(=O)c1cc(-c2ccc(Cl)cc2)on1 [CBK116561]	102.699
Cc1cccc(CN(Cc2ccccc2)C(=O)CCc2ccncc2)n1 [CBK282101]	78.4604
CC(C)CC(NS(=O)(=O)c1cccc2nsnc12)C(=O)O (stereo not shown) [CBK217288]	96.6465
COc1ccc(CN2CC(C(=O)O)C2)cc1Cn1cncn1 [CBK307284]	40.4787
O=C(Nc1ccccc1)Nc1nc(=O)n(-c2ccccc2)s1 [CBK070710]	87.2133
Fc1ccc(-c2cc(CC3(NCc4ccc5c(c4)OCO5)COC3)no2)cc1 [CBK289654]	89.5784
CCn1nc(C)c(-c2cncn2CCCOc2ccccc2C)c1C [CBK281761]	98.388
CC1(C)CC(N(Cc2ccccc2)Cc2ncc[nH]2)CC(C)(C)N1 [CBK283179]	83.7649
COc1ccc(CN(Cc2ccsc2)[C@@H]2COC[C@H]2c2ccc(F)cc2)cc1 [CBK286485]	60.4032
CCN1CCN(C(=O)c2cc(C)[nH]n2)CC1 [CBK200377]	92.2187
CCNC(=O)N1CC2(CCN(CCOc3ccccc3)CC2)c2ccccc21 [CBK122701]	41.7049
O=C1CC(c2cccnc2)c2sc(N3CCOCC3)nc2N1 (stereo not shown) [CBK287927]	93.6847
Cc1ccc(S(=O)(=O)Nc2ccc3[nH]ccc3c2)cc1 [CBK153519]	65.3572
COc1cccc(CSC2=C(C#N)C(c3cccs3)C(C(=O)Nc3ccccc3)=C(C)N2)c1 (stereo not shown) [CBK267458]	100.538
COc1cc(S(=O)(=O)Oc2ccc(OCc3ccccc3)cc2)ccc1Cl [CBK264132]	92.8662
CC(=O)N1CCc2cc(NC(=O)c3cc4cc(C)ccc4o3)ccc21 [CBK281470]	103.147
CCC(CNC(=O)c1cc(-c2ccco2)nc2c(C(N)=O)ncn12)c1ccccc1 (stereo not shown) [CBK297779]	87.3844
O=S(=O)(c1ccccc1)N1CCC(c2cc3ncccc3[nH]2)CC1 [CBK283397]	79.5764
CNc1ncnc2c1ncn2C1CC(O)C(CO)O1 (stereo not shown) [CBK201308]	123.329
COc1cccc2ncn(CCc3n[nH]c(N)n3)c(=O)c12 [CBK307301]	67.2968
COCCSc1nnc(NS(=O)(=O)Cc2ccccc2)s1 [CBK267535]	92.8902
COc1ccc(C(N2CCOCC2)N2CCOCC2)cc1 [CBK261002]	96.3037

SMILES	% of control remaining
Cc1nc(C(Cc2ccsc2)NC(=O)c2cnn(C)c2)sc1C (stereo not shown) [CBK284779]	66.3616
COc1cc(OC)nc(CN2CCOC3(CCN(C(=O)OCc4ccccc4)CC3)C2)n1 [CBK161101T]	97.3707
CC(Oc1ccccc1)C(=O)Nc1c[nH]c(=O)[nH]c1=O (stereo not shown) [CBK266524]	67.9353
O=C(O)CC1(CC(=O)N2CC[C@H]3NC(=O)N(c4ccc(F)cc4)C(=O)[C@H]32)CCCC1 [CBK289327]	102.55
Cc1cc(C(=O)O)cc(S(=O)(=O)N2CCOCC2)c1C [CBK264497]	94.7999
O=S(=O)(Nc1ccccn1)N1CCOCC1 [CBK269391]	103.857
O=C(CN1CCCCCC1)Nc1sc2c(c1C(=O)Nc1ccc(Br)cc1)CCC2 [CBK265076]	96.8613
CCN(CCO)c1ccc(Nc2cc(-c3cccc([N+](=O)[O-])c3)ncn2)cc1 [CBK091002]	94.3605
CC(C)(C)NC(=O)[C@@H]1CNC[C@]12Cc1ccccc1C(=O)N2 [CBK285294]	81.3301
O=S(=O)(Nc1cccc(-c2cnco2)c1)c1ccc(-c2cc(C(F)(F)F)on2)s1 [CBK067124]	83.55
Cc1nc2sccn2c1CN1CCC(O)(c2ccc(F)cc2)CC1 [CBK282792]	60.9935
COCCCNC(=O)CN1CCCCC1Cn1nc(C)cc1C (stereo not shown) [CBK304009]	59.893
Cc1nc(SCC(=O)c2cc(Cl)ccc2Cl)c2ccccc2n1 [CBK297543]	94.0518
O=C(Nc1cccc(S(=O)(=O)N2CCOCC2)c1)c1cc(-c2cccnc2)nc2ccc(Cl)cc12 [CBK267720]	100.539
COc1ccc(CN(C)c2c(C)nc3c(OCCc4cccc(OC)c4)cccn23)cc1 [CBK147467]	113.342
CCN1CC(C(=O)N2CCN(C(=O)c3ccccc3F)CC2)CC1=O (stereo not shown) [CBK282937]	93.9584
COc1ccc(S(=O)(=O)NC(C)C(=O)NCc2ccccn2)cc1Cl (stereo not shown) [CBK269275]	95.1696
CN(CC(=O)O)C(=O)c1ccc(S(=O)(=O)N2CCCC2)cc1 [CBK265724]	91.1301
O=C(O)CCC(=O)N1C[C@@H]2C[C@H](C1)c1ccc(-c3ccc4ccccc4c3)c(=O)n1C2 [CBK289179]	96.9068
C[C@@H](Nc1nc(-c2cc(C(F)(F)F)cc(C(F)(F)F)c2)cnc1N)c1ccccc1 [CBK063720]	41.6135
Cc1nn(C)c(Cl)c1S(=O)(=O)NCCc1c[nH]c2ccccc12 [CBK067310]	82.554
COc1ccccc1Oc1ccc([N+](=O)[O-])cc1F [CBK002850]	82.5859
COCCc1nc(C2CCC2)n(Cc2ccccc2C)n1 [CBK307238]	103.239
CCc1nn(CC(=O)N2CCCCC2C)c(=O)c2cc3occc3n12 (stereo not shown) [CBK283676]	118.024
COc1ccc(CCC(=O)NC[C@H]2CC[C@H](c3cc(C(N)=O)c4ccccc4n3)CC2)cc1 [CBK285920]	126.136
CCc1ccc2c(c1)C(=O)CC1(CCN(C(=O)c3cc(OC)c(C)c(OC)c3)CC1)O2 [CBK168098]	83.6678
CC1(C)SC(c2ccc(F)cc2)N[C@H]1C(=O)O (stereo partly shown) [CBK025917]	105.961

SMILES	% of control remaining
CC(=O)c1cc2c(N)c(/C(N)=N/C#N)sc2nc1C [CBK021202]	70.541
O=C(O)c1cccc(-c2ccc(/C=N/Nc3ccc([N+](=O)[O-])cn3)o2)c1 [CBK263196]	58.9753
COc1ccc(NC(=O)C(=O)N/N=C/c2ccc(C(=O)O)cc2)cc1 [CBK262255]	102.083
COc1ccccc1NS(=O)(=O)c1ccc2c(c1)C1C=CCC1C(c1ccc(C(=O)O)cc1)N2 (stereo not shown) [CBK268903]	54.9822
NC(=O)c1cccc(-c2nc(-c3cc4ccccc4o3)cnc2N)c1 [CBK063996]	100.406
COC(=O)Nc1cc2sccc2nc1C(F)(F)F [CBK019229]	102.109
NC(=O)c1cccnc1N1CCNCC1 [CBK025310C]	74.8591
CCOC(=O)c1cnc(SC)nc1NCCc1c[nH]c2cc(F)ccc12 [CBK092315]	79.0368
O=Cc1ccc(-c2nccnc2NS(=O)(=O)c2ccccc2)cc1 [CBK073845]	99.0166
Cc1ccc(O)c(CN[C@@H]2CCC(=O)N[C@H]2c2cc(F)cc(F)c2)c1 [CBK283132]	89.6953
CC(c1ccccc1)n1c(S)nnc1-c1cc(C(C)(C)C)n[nH]1 (stereo not shown) [CBK268954]	92.5584
OC1(c2ccc(F)cc2)CCC2CN(CC3CC3)CC21 (stereo not shown) [CBK283105]	82.8723
Cc1ccc(C(=O)N2CCN(Cc3cc(=O)n4ccsc4n3)CC2)cn1 [CBK305700]	89.5547
Cc1ccc(F)c(OC2(C(=O)O)CCN(Cc3ncc[nH]3)CC2)c1 [CBK307062]	82.1093
C=CCNC(=O)N[C@H]1CCN2C(=O)c3ccc(Cl)cc3NC(=O)[C@@H]2C1 [CBK289569]	88.3897
CN(C(=O)COC(=O)c1cc(-c2ccco2)nc2ccccc12)C1(C#N)CCCCC1 [CBK295591]	114.712
CCN1C(=O)C2(CC(=O)N(CC(=O)OC)C2=O)c2cc(Cl)ccc21 (stereo not shown) [CBK075234]	156.534
COc1ccc([C@]23CN(C)C[C@H]2CCN(C(=O)c2cccc(Br)c2)C3)cc1OC [CBK075111T]	81.9985
COC(=O)CN1CCCC[C@H]2CN(C(=O)Cc3ccsc3)C[C@H]21 [CBK285509]	94.4568
CC(C)(N)CNC(=O)c1cnc2cc(Cl)ccc2c1O [CBK107360]	97.5706
Cc1nc(CN2CCCC3(CCN(C(=O)c4cc(F)c(F)cc4F)C3)C2)cs1 (stereo not shown) [CBK132026]	102.857
S=c1nccc(N2CCC(Cc3ccccc3)CC2)[nH]1 [CBK288361]	61.2314
O=C1CC2(CCN(C(=O)C3CCCC3)CC2)Oc2ccc(F)cc21 [CBK283686]	98.8712
CCC1CCCCN1C(=O)c1cc(C)nc(Cl)c1 (stereo not shown) [CBK076748]	64.1875
Cc1cc(C)n(CCCNC(=O)c2ncoc2-c2ccc(F)cc2)n1 [CBK282357]	19.9382
